Screen size: about 48,000 compounds; about 1,200 (2.5%) were called active. Not shown: some 2% with an inconclusive outcome.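 How the source made its calls: active means activation of at least 60% and not above a set upper limit (about 1 call in 100 departs from these limits); inconclusive means activation of 40% to 60%, or above that upper limit; inactive means activation under 40%.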 The list shows a part of the results.

Sequence of UniProt O75388 (O75388 whole entry, looked up): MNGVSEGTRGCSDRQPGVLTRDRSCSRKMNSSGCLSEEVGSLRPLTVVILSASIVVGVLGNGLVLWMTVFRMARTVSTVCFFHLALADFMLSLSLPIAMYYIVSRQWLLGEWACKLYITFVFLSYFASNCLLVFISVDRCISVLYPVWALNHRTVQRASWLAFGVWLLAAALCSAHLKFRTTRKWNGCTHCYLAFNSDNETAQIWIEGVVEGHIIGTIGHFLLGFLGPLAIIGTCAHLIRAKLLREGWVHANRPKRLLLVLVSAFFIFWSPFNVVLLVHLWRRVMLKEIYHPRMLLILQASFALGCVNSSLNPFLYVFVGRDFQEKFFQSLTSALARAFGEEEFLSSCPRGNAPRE

This assay concerns the target Probable G-protein coupled receptor 32 (Homo sapiens) (UniProt O75388). The assay can be described thus: qHTS for Agonists of Human Resolvin D1 Receptor DRV1. Further: 0% is about no effect. As to conditions: CHO-K1 GPR32 beta-arrestin PathHunter luminescence, 90 min; at 76.9 µM; active compounds read high; zero percent set by DMSO-only wells. The essentials:
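CHO-K1 cells stably expressing ProLink-tagged GPR32 and Enzyme Activator-tagged beta-arrestin were seeded at 2,500 cells/well overnight, exposed to compounds for 90 min at 37 °C, then read by beta-Gal complementation chemiluminescence after 1 h detection reagent.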
For `COc1ccc(-c2nn3c(-c4ccc(C)cc4)nnc3c3ccccc23)cc1`, the activation was inactive: -1.19%. Consider `COc1cccc(CN2C(=O)c3ccccc3Sc3ccc(C(=O)NCCc4ccc(Cl)cc4)cc32)c1`, for which the activation was inactive: -18.1%. In the case of `COc1ccc(C2=Nn3c(nc4sc(C(=O)Nc5cccc(C)c5)c(C)c4c3=O)SC2)cc1`, the activation is inactive: 6.99%. Take `COc1ccc(NC(=O)c2ccc3c(c2)c(C)c(C)n3Cc2ccc(F)cc2)c(OC)c1`: the activation is inactive: -19.8%.

As to `COc1ccc(NC(=O)Cn2c(=O)n(-c3ccc(CC(=O)NCC4CCCO4)cc3)c(=O)c3ccccc32)c(OC)c1` (stereo unspecified), the activation was inactive: -25.9%. As to `CCCOc1ccc(OC(=O)c2c(-c3ccccc3Cl)noc2C)cc1`, the activation was inactive: -7.62%. In the case of `COc1ccc(NC(=O)c2cc3c([nH]c2=O)CC(c2ccccc2)CC3=O)cc1` (stereo unspecified), the activation was inactive: -11.9%. In the case of `CCc1ccc(OCC(=O)N(Cc2ccco2)Cc2ccco2)cc1`, the activation is inactive: -8.44%. Regarding `Cc1cc(C)cc(OCc2cc(=O)n3cc(C)sc3n2)c1`, the activation is inactive: -14.5%. As to `COc1ccccc1NC(=O)CCn1nc(-c2ccccc2)c2ccccc2c1=O`, the activation is inactive: -24.5%. With `O=C(C1CCN(c2nc3ccccc3[nH]2)CC1)N1CCN(c2ccccc2)CC1`, the activation is inactive: -4.23%. In the case of `CCOC(=O)c1c(C)n(-c2ccccc2)c2ccc(OC(=O)c3ccc(OCC)c(OCC)c3)cc12`, the activation is inactive: 17.8%. For `Cc1cccc(-c2noc(-c3ccc(NCC4CCCO4)c([N+](=O)[O-])c3)n2)c1` (stereo unspecified), the activation was inactive: -0.181%. As for `COc1ccccc1N1CCN(c2nc3ccc(C)cc3nc2-n2nc(C)cc2C)CC1`, the activation was inactive: -3.4%. As for `CCCN1CCN(CCCNC(=O)c2ccc3c(c2)sc2nc(-c4ccc(C)cc4)cn23)CC1`, the activation was inactive: -7.94%. On to `Cc1cccc(NCc2nnc3n2CCCCC3)c1C`, for which the activation was inactive: 8.55%. Consider `CN(C(=O)c1ccc2c(c1)N(Cc1ccccc1F)C(=O)c1ccccc1S2)C1CCCCC1`, for which the activation was inactive: -40.2%. With `CN(C)S(=O)(=O)c1ccc2c(c1)N(CC(=O)N1CCCCC1)CCS2`, the activation was inactive: 4.93%. For the compound `Cc1ccc(-c2nnc(Nc3ccc(Cl)cc3)c3ccccc23)cc1S(=O)(=O)N1CCOCC1`, the activation was inactive: -10.9%.

`Cn1cc(S(=O)(=O)c2ccccc2)c(=O)c2cc(F)c(N3CCN(c4ccc(F)cc4)CC3)cc21`: the activation is inactive: -11%. The value for `O=C(Nc1c(C(=O)N2CCC(N3CCCCC3)CC2)oc2ccccc12)c1c(F)cccc1F` was inactive: -5.8%.

In the case of `Cc1ccc(NC(=O)Cn2c(=O)n(CCC(=O)NCCc3ccccc3)c(=O)c3ccccc32)cc1`, the activation is inactive: 14.8%. On to `O=C(Cn1cnc(S(=O)(=O)N2CCCC2)c1)Nc1ccccc1`, for which the activation is inactive: -25.2%. In the case of `CC(=O)Nc1ccc(NC(=O)C(Cc2ccccc2)N2Cc3ccccc3C2=O)cc1` (stereo unspecified), the activation is inactive: -13.5%.

As for `Cc1cccc(N2CCN(C(=O)c3c(C)oc4nc(C)nc(N5CCCC5)c34)CC2C)c1` (stereo unspecified), the activation was inactive: -15.6%. Consider `COc1ccc(CNC(=O)CCc2nc3cccnc3n2Cc2ccccc2)cc1`, for which the activation is inactive: -8.82%.

`Cc1ccc(Cl)cc1N1CCN(C(=O)c2cn(C)c3ccc(S(=O)(=O)N(C)C4CCCCC4)cc3c2=O)CC1`: the activation was inactive: -12.9%. As for `CCOc1ccc(CCNC(=O)C(C)n2nc(C)n3c(cc4occc43)c2=O)cc1OCC` (stereo unspecified), the activation is inactive: -13.7%. Turning to `COc1cccc(-n2c(SCC(=O)N3CCCCC3)nc3c([nH]c4ccccc43)c2=O)c1`, the activation was inactive: -3.54%. With `COc1ccc(CC(=O)NC2CC(=O)N(c3ccc4c(c3)OCCO4)C2)cc1` (stereo unspecified), the activation was inactive: -5.49%.

As to `CC(C)NC(=O)c1ccc(Cn2c(=O)c3cccn3c3cccnc32)cc1`, the activation was inactive: -11.8%. In the case of `CCOC(=O)c1c(NC(=O)C(C)Sc2cn(CCNC(=O)c3ccc(OC)c(OC)c3)c3ccccc23)sc2c1CCC2` (stereo unspecified), the activation was inactive: -11.3%.

In the case of `CCOCCCn1c(=N)c(S(=O)(=O)c2ccc(C)cc2)cc2c(=O)n3ccccc3nc21`, the activation is inactive: -14.5%. On to `Nc1c(C(=O)Nc2cccc(Cl)c2)sc2nc3c(cc12)CN(Cc1ccccc1)CC3`, for which the activation was active: 60.9%. Turning to `COc1ccc2nc3sc(C(=O)Nc4cc(Cl)c(OC)cc4OC)cc3cc2c1`, the activation was inactive: 4.74%.

As for `Cc1c(NC(=O)c2cc(-c3cccc(Cl)c3)on2)c(=O)n(-c2ccccc2)n1C`, the activation is inactive: 14.7%.

As to `O=C(NCCC1=CCCCC1)c1ccc2c(c1)N(Cc1ccc(F)cc1)C(=O)c1ccccc1S2(=O)=O`, the activation was inactive: 2.7%. With `O=C(CSc1nncn2c1cc1sccc12)Nc1ccccc1C(F)(F)F`, the activation was inactive: -1.28%.

As for `COCCCNc1nc2c(-c3ccccc3)nnn2c2ccccc12`, the activation was inactive: 6.85%. Take `CCOCCCn1c(=N)c(C(=O)NCc2ccco2)cc2c(=O)n3ccccc3nc21`: the activation is inactive: -23.6%. Then `CO[C@]1(NC(=O)CSC(F)F)C(=O)N2C(C(=O)O)=C(CSc3nnnn3CCO)CO[C@H]21`, with inactive: 16.4%.

For `CCOC(=O)c1c(C)oc2nc(C)nc(NCc3ccc(C)cc3)c12`, the activation was inactive: -1.26%. The value for `CCN1CCN(Cc2c(O)ccc3c(=O)c(Oc4ccccc4Cl)c(C(F)(F)F)oc23)CC1` was inactive: -6.39%. For `Cc1ccccc1C(=O)NCC(c1cccnc1)N1CCc2ccccc21` (stereo unspecified), the activation was inactive: -18.7%. Take `COC(=O)c1ccccc1NC(=O)c1cc2nc(-c3ccccc3)cc(-c3ccccc3)n2n1`: the activation was inactive: -0.0595%. In the case of `Cc1cccc(N2CCN(S(=O)(=O)c3ccc4oc(=O)c5ncn(C)c5c4c3)CC2C)c1` (stereo unspecified), the activation was inactive: -1.87%. Then `COc1ccc(N(C(=O)COc2c(C)cccc2C)S(=O)(=O)c2ccc(Cl)cc2)cc1`, with inactive: -8.81%; and `COc1ccc(NC(=O)C2(c3cccs3)CCOCC2)cc1Cl`, with inactive: -2.21%; and `CCOC(=O)c1c(C)sc(-c2c(-c3ccc4c(c3)OCCO4)[nH]c3c2c(=O)[nH]c(=O)n3C)c1O`, with inactive: -48.5%. Take `Cc1ccc(-c2nnc(Nc3ccc(O)cc3)c3ccccc23)cc1S(=O)(=O)NCc1nc2ccccc2[nH]1`: the activation is inactive: -1.73%. Then `COc1cccc(N2CCN(C(=O)c3c(C)oc4ncnc(N5CCCCC5)c34)CC2)c1`, with inactive: -1.2%.
